In the RNAGym collection of RNA variant scans (doi:10.1093/nar/gkz1192):
The source gives no read counts; variants with many changes may rest on few reads.

B1: CPEB3 Ribozyme (parent)
chain: UAACAGGGGGCCACAGCAGAAGCGUUCACGUCGCAGCCCCUGUCAGAUUCUGGUGAAUCUGCGAAUUCUGCUGUAUAUCUC

Variants of: B1
Test: self-cleavage, relative activity (ratio to wild type); higher = more cleavage; in vitro, sequencing
Procedure, shortened: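 Relative activity compares each variant's cleaved/total read fraction with that of the unmutated ribozyme. To get these fractions, barcoded CPEB3 ribozyme libraries from rounds of error-prone PCR were transcribed with T7 RNA polymerase for 5 hours at 37°C and then given 15 min of DNase I treatment before EDTA was added. The RNAs were reverse transcribed with template switching and sequenced on Illumina, and DNA sequencing linked barcodes to variants. A minimum of 5 reads applied, and three batches were averaged.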

Variant | self-cleavage
A20G U25C A56G A77G | 0.49
A20G U25C A56G U72A U80A | 0.1
A20G U25C A57G G70A G73A | 0.04
A20G U25C A65U U67C | 0.44
A20G U25C C32A U41A U49C U69A | 0.11
A20G U25C C32A U54A A56U U78C | 0.13
A20G U25C G30A G33U U54C | 0.12
A20G U25C G33C U58G | 0.04
A20G U25C G52A | 0.27
A20G U25C U26C A47C A64G | 0.13
A20G U25C U26C U72C | 0.35
A20G U25C U31A U48C | 0.33
A20G U25C U31A U48C G53C U74A | 0.04
A20G U25C U31C C44G A56U U80A | 0.18
A20G U25C U41A U74C | 0.46
A20G U25C U41C C44U U51A U54C | 0.27
A20G U25C U41C U48C | 0.25
A20G U25C U41C U51A | 0.19
A20G U25C U41G | 0.12
A20G U25C U43C U60C U69C A77G | 0.02
A20G U25C U43C U69C A75G | 0.1
A20G U25C U43C U76C | 0.35
A20G U25C U48C U74C | 0.32
A20G U25C U49C | 0.07

Variant | self-cleavage
A20G U25C U49C A56G | 0.36
A20G U25C U51A | 0.39
A20G U25C U51C U80C | 0.3
A20G U25C U54C A57G | 0.17
A20G U25C U58G | 0.4
A20G U25C U66C | 0.06
A20G U25C U78A | 0.21
A20G U25C U78C | 0.09
A20G U25G U26C U51C U69G C81U | 0.06
A20G U26A A45G U48C U51A A65G U72C | 0.06
A20G U26A A47G | 0.42
A20G U26A A56G | 0.36
A20G U26A A75G | 0.64
A20G U26A C32A U51A | 0.19
A20G U26A C32U U48C A65G U80C | 0.14
A20G U26A G33A A47G U51C | 0.08
A20G U26A G36U | 0.07
A20G U26A U31A U67C U78C | 0.22
A20G U26A U49A U60C | 0.24
A20G U26A U49C A56G | 0.53
A20G U26A U49C A56G U76C | 0.82
A20G U26A U74G | 1.2
A20G U26C A35G U43A U58C | 0.17
A20G U26C A47U A75G | 0.39

Variant | self-cleavage
A20G U26C A57U C71A | 0.16
A20G U26C C29U | 0.46
A20G U26C C29U U31A | 0.28
A20G U26C C32G U67A | 0.09
A20G U26C C40U | 0.36
A20G U26C C44A A57G | 0.07
A20G U26C C62U U66C U72A U78G | 0.07
A20G U26C G30A G61A | 0.2
A20G U26C G33A | 0.07
A20G U26C G33C U51C U58G U72C | 0.12
A20G U26C G61C U80A | 0.07
A20G U26C U31A U78C | 0.14
A20G U26C U31C U48C U54A | 0.08
A20G U26C U31C U60A A77G | 0.05
A20G U26C U41A U51C U69A U78C | 0.2
A20G U26C U41C A75G | 0.45
A20G U26C U43A A47G U54C U69A | 0.27
A20G U26C U43A U60C | 0.1
A20G U26C U49A A64G U76A | 0.06
A20G U26C U51G | 0.17
A20G U26C U54C G63U U66C | 0.08
A20G U26C U67C | 0.29
A20G U26C U76A | 0.32
A20G U26C U76C | 0.41

Variant | self-cleavage
A20G U26C U78C | 0.35
A20G U26G A45G U69A U78C | 0.04
A20G U26G U49C A64G U69A | 0.14
A20G U26G U51C C62A | 0.22
A20G U31A C50U | 0.42
A20G U31A U58C U76C | 0.1
A20G U31C A45G C50A U78C | 0.31
A20G U31C A45G U66C | 0.34
A20G U31C A45U U54A A56G A75U U80G | 0.02
A20G U31C A57G U67A C79A | 0.3
A20G U31C C32A U78C | 0.17
A20G U31C C32U U41A U54C | 0.08
A20G U31C C39A A45G | 0.09
A20G U31C C44G U49C C68A U72A | 0.22
A20G U31C U41C U54C U72A | 0.17
A20G U31C U43C | 0.38
A20G U31C U48C A64G | 0.45
A20G U31G A45C A56G U67C | 0.05
A20G U31G A45U G52A | 0.11
A20G U41A A47G | 0.09
A20G U41A A56G U60C | 0.09
A20G U41A G63C U69C | 0.11
A20G U41A U48C A65G | 0.17
A20G U41A U49C U51C U69C | 0.03

Variant | self-cleavage
A20G U41A U54C | 0.35
A20G U41C A47G A56G A64G | 0.26
A20G U41C A57G | 0.8
A20G U41C A57U C59A | 0.13
A20G U41C C44U A45G U48C | 0.17
A20G U41C C50A C68U | 0.52
A20G U41C U49C G63A A65G U72C U80C | 0.12
A20G U41C U58C U76A | 0.76
A20G U41C U60G A64G U80C | 0.18
A20G U41G U51A U78A | 0.1
A20G U43A A64G U74C U78A | 1.22
A20G U43A U51A U74A | 1.11
A20G U43A U54C A56G A77U | 0.81
A20G U43A U54G | 0.49
A20G U43A U60C | 0.24
A20G U43A U60G | 0.41
A20G U43A U69C | 0.78
A20G U43A U72A | 0.26
A20G U43A U72C | 1.09
A20G U43C A64C | 0.18
A20G U43C C50U A64U U72C A77U | 0.08
A20G U43C U48C U80C | 0.36
A20G U43C U49C U80C | 0.08
A20G U43C U51A G63C A64G | 0.19

Variant | self-cleavage
A20G U43C U54G A56C A65U | 0.43
A20G U43C U54G U60A U72A | 0.2
A20G U43C U60C A75G | 0.09
A20G U43C U66C | 0.24
A20G U43C U67A | 0.27
A20G U43C U78A C79A | 0.5
A20G U43C U78C | 0.39
A20G U43G U72C | 0.08
A20G U48A A56U A64G | 0.1
A20G U48A U49C A57G U58A A75U | 0.16
A20G U48A U54C A65U | 0.18
A20G U48C A57G U69C U80A | 0.53
A20G U48C A64G | 0.24
A20G U48C A64U U78C | 0.27
A20G U48C A77G | 0.26
A20G U48C U54G A65G | 0.09
A20G U48C U67G U72C | 0.11
A20G U48C U74C | 0.81
A20G U49A U69C | 0.39
A20G U49C A57G A65G | 0.03
A20G U49C U51A A56G | 0.32
A20G U49C U51G | 0.21
A20G U49C U54A A56U A64U U72C | 0.11
A20G U49C U54A U74A | 0.66

Variant | self-cleavage
A20G U49C U58C A77G | 0.14
A20G U49C U60A C68U | 0.08
A20G U49C U67C | 0.19
A20G U49C U67C U80C | 0.55
A20G U49C U72C | 0.27
A20G U51A A56G A64C | 0.12
A20G U51A A64U | 0.27
A20G U51A U76C | 1.05
A20G U51C A56G | 0.66
A20G U51C U54G U72A | 0.43
A20G U51C U69A | 0.36
A20G U51C U72C | 0.74
A20G U54A U80A | 1.15
A20G U54C C62U | 0.44
A20G U54C G73U U80C | 1.16
A20G U54C U60A | 0.51
A20G U54C U72C U76A | 0.85
A20G U54C U78C C81U | 0.99
A20G U54G U60A U67C C68U | 0.33
A20G U58A G63U | 0.29
A20G U58A U60C | 0.22
A20G U58A U66C U78C U80C | 0.17
A20G U58C A65G | 0.12
